According to publication PMC4336329 (PLoS ONE, 2015):
Among all 310,000 compounds or so, about 14,000 (4.5%) showed an effect of 50% or more. Effects have a minus sign here. The list shows a part of the results.

Target: human ether-à-go-go-related gene (hERG) potassium channel (human, UniProt Q12809)
Test: primary screen, population patch clamp on CHO cells stably expressing hERG
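Also: peak tail current of the secondary pulse compared with the same well before compound.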

human ether-à-go-go-related gene (hERG) potassium channel, sequence (Q12809 whole entry, looked up): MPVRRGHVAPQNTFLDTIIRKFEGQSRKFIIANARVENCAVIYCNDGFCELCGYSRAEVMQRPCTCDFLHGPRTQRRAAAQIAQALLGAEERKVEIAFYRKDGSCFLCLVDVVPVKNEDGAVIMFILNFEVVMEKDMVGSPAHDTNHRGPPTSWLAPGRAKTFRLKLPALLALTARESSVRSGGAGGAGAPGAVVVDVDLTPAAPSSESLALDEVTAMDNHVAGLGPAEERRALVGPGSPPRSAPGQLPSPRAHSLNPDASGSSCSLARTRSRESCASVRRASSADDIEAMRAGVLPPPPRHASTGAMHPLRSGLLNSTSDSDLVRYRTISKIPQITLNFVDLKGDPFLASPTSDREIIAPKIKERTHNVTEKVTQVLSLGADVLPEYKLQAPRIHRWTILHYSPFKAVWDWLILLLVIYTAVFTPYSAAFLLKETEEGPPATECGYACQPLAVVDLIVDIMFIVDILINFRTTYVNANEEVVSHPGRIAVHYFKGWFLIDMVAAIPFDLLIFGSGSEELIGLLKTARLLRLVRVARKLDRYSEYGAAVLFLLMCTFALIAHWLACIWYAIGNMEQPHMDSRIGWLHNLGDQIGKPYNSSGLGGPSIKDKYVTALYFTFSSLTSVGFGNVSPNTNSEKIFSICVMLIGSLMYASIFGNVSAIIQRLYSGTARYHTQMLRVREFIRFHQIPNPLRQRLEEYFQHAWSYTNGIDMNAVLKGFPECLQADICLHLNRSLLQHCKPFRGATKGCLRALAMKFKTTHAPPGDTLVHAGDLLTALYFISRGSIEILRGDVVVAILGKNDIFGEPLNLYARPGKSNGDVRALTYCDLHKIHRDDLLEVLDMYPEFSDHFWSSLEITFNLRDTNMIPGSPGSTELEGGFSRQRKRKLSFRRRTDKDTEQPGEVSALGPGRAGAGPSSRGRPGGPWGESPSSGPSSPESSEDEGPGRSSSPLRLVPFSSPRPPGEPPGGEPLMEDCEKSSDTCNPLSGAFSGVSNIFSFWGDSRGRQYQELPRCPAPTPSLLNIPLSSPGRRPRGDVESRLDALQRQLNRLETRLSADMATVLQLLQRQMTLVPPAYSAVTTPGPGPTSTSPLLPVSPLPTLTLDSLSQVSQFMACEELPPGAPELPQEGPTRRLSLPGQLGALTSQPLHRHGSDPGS

| Compound | hERG current change (%, negative = inhibition) at 10uM [%] |
| --- | --- |
| CC1=NN(c2ccc(Cl)cc2)C(=O)C1C(c1cccc(O)c1)c1c(C)[nH]n(-c2ccc(Cl)cc2)c1=O (stereo not drawn) | 6.29 |
| COc1ccc2c(c1)NP(=S)(Oc1ccccc1)N2 (stereo not drawn) | 9.63 |
| COC(=O)c1ccc(C2C(Oc3ccccc3)C(=O)N2CCc2ccc(OC)c(OC)c2)cc1 (stereo not drawn) | 13.6 |
| CCOc1ccccc1OC(=O)c1cc2ccccc2oc1=O | 2.82 |
| CCOC(=O)c1ccc(S(=O)(=O)Nc2cc(C(=O)O)ccc2Cl)cc1 | 2.13 |
| COc1ccc(NC(=O)/C=C/c2ccc3c(c2)OCO3)cc1 | 5.2 |
| Cc1nn2c(nc1=O)NNC2(C)C(C)(C)C (stereo not drawn) | 8.08 |
| COc1ccc(-c2[nH]ncc2CN2CCC(N3CCSCC3)CC2)cc1F | -22.5 |
| COC(=O)[C@@H]1C2CCC(C(=O)Nc3ccccc3)(CC2)[C@@H]1C(=O)OC | 19 |
| NC(=O)c1ccsc1NC(=O)CS(=O)(=O)c1ccccc1 | -8.27 |
| CCOc1ccc(OCC)c(NC(=O)CN(C)S(=O)(=O)c2cnc[nH]2)c1 | 6.12 |
| COc1ccc(CCC(C)NCC2CCCCC2)cc1 (stereo not drawn) | -14.9 |
| CSc1nnc(C)c(/C=C/NOCc2ccc(Cl)cc2)n1 | -8.79 |
| Cc1ccc2c(c1)C1CN(C)CCC1N2S(=O)(=O)c1cccc(F)c1 (stereo not drawn) | -11.5 |
| O=C(COc1nsnc1N1CCOCC1)N/N=C/c1ccccc1O | -17.8 |
| CCOC(=O)c1c(NC(=O)CSc2nnc(CN3CCOCC3)n2C)sc2c1CCCC2 | -30 |
| CCC(=O)c1ccc(N2CCN(C(=O)c3ccc(F)cc3)CC2)c(F)c1 | -60 |
| O=C1OC(Nc2nc3ccccc3s2)c2ccccc21 (stereo not drawn) | 2.06 |
| COc1ccc(NC(=O)CC2C(=O)N(c3ccc(Cl)cc3)C(=S)N2NC(=O)c2cccc(F)c2)cc1 (stereo not drawn) | 20.7 |
| COc1ccc(S(=O)(=O)N2CCOCC2)cc1NC(=O)Cc1ccc(Cl)c(Cl)c1 | 3.6 |
| COc1ccc(N2CCN(C(=O)c3cn(C)c(=O)c4c3c3ccccc3n4C)CC2)cc1 | -14.7 |

| Compound | hERG current change (%, negative = inhibition) at 10uM [%] |
| --- | --- |
| Cc1ccc(N(C(=O)c2sc(C)nc2C)C(C(=O)NC(C)(C)C)c2ccncc2)cc1 (stereo not drawn) | 25.8 |
| Cc1nnc(SCC(=O)N(C)C2CCS(=O)(=O)C2)n1Cc1ccccc1 (stereo not drawn) | 0.142 |
| CCOC(=O)Cc1c(Sc2ccccc2)c2ccccc2n1C | 4.2 |
| CC[C@@]12C(=O)N(c3cccc(Cl)c3)C(=O)N1[C@H](c1cccc(C)c1)[C@@H]1C(=O)N(Cc3ccccc3)C(=O)[C@@H]12 | 5.58 |
| COc1cccc(-n2nnc3c(=O)n(CC(=O)N4CCC(C)CC4)cnc32)c1 | -14.8 |
| COc1ccc(OC)c(NC(=O)CSc2nc3ccccc3c(=O)n2CCNC(C)=O)c1 | -2.83 |
| O=S(=O)(Nc1cccc(-n2cnnn2)c1)c1cc(Cl)ccc1Cl | 1.02 |
| Cc1ccccc1/C=C/c1nc2ccccc2c(=O)[nH]1 | 16.5 |
| CCCCCCCCNc1nc(Cl)nc(NCc2ccco2)n1 | 10.9 |
| CCn1c(=S)sc2c(=O)n(CC(=O)Nc3cccc(OC)c3)c(C)nc21 | 0.0573 |
| CC(C)CNC(=S)N1CCC(Cc2ccccc2)CC1 | -40.1 |
| COc1ccc(-c2csc3nc(C)nc(N4CCN(c5ccc(C(C)=O)cc5)CC4)c23)cc1OC | -20.6 |
| O=C(CN1C(=O)NC2(CCCCCC2)C1=O)c1ccc(Cl)cc1 | -3.05 |
| CC(=O)Nc1nc(C)c(-c2csc(Nc3cccc([N+](=O)[O-])c3)n2)s1 | -10.9 |
| CN1CCN(C(=O)c2ccc(CN(c3ccccc3)S(=O)(=O)c3ccccc3)cc2)CC1 | -38 |
| COc1ccc(-c2ccccc2)cc1NCc1ccc(OC)c(OC)c1 | 9.42 |
| O=C(NNC(=S)NC(=O)c1ccccc1[N+](=O)[O-])c1ccccc1 | 11.1 |
| CCOC(=O)Cc1csc(SCC(=O)Nc2sc3c(c2C(N)=O)CCC3)n1 | 8.17 |
| CCC1CCCCN1C(=O)c1c[nH]c2ccc(S(=O)(=O)N(C)c3ccc(Cl)cc3)cc2c1=O (stereo not drawn) | -33.8 |
| CC(=O)N(C(C)=O)c1c(C#N)c(C)n(-c2ccccc2)c1C(=O)c1ccccc1 | -4.71 |
| COC(=O)c1[nH]c(C)c(/C(O)=C2\C(=O)C(=O)N(CCN(C)C)C2c2cc(OC)ccc2OC)c1C (stereo not drawn) | 13.6 |

| Compound | hERG current change (%, negative = inhibition) at 10uM [%] |
| --- | --- |
| Cc1ccc(NC2=CC(=O)CC(c3ccco3)C2)c(N)c1 (stereo not drawn) | 7.89 |
| O=C(O)c1ccc2c(c1)C(=O)N(c1cccc(S(=O)(=O)Nc3cccc(C(F)(F)F)c3)c1)C2=O | 21.1 |
| COc1ccc(Cl)cc1S(=O)(=O)n1ccnc1 | 3.07 |
| COc1cc(-n2c(=O)c3ccccc3n(CC(=O)c3ccc(Br)cc3)c2=O)cc(OC)c1OC | 0.938 |
| Cc1cc(C)nc(N/N=C/c2ccccc2Cl)n1 | 2.48 |
| CCCC(C)C(=O)Nc1nc(C)c(-c2csc(Nc3cc(Cl)ccc3C)n2)s1 (stereo not drawn) | 0.0165 |
| COc1ccccc1N(Cc1cc(=O)[nH]c2ccccc12)C(=O)C(C)C | -3.83 |
| Cc1ccc(C)c(-c2cc(C(=O)N/N=C/c3cccnc3)c3ccccc3n2)c1 | -40.2 |
| O=C(Nc1ccccc1)c1cnc[nH]1 | 12.4 |
| Cc1ccc(-c2cn(-c3ccccc3)c3[n+]2CCCS3)cc1.[Br-] | -29.1 |
| CCOC(=O)c1sc(NC(=O)Cc2ccccc2OC)nc1C | 3.57 |
| O=C(NC(=S)Nc1ccc(Oc2ccccc2)cc1)c1ccc(Cl)cc1 | -5.87 |
| C#Cc1ccc([C@@H]2C=C(C(=O)N3CCN(Cc4ccc5c(c4)OCO5)CC3)O[C@H](OCCCCO)C2)cc1 | -64.1 |
| Clc1cccc(OCCCN2CCCC2)c1Cl | -55.5 |
| COc1ccccc1Nc1nc(N)nc(CN2CCC(Cc3ccccc3)CC2)n1 | -84.5 |
| O=S(=O)(NCC1CCCO1)c1ccc2oc3ccc(S(=O)(=O)NCC4CCCO4)cc3c2c1 (stereo not drawn) | -12.2 |
| CCOC(=O)CSC1=C(C#N)C(c2ccccc2F)C(C(C)=O)=C(C)N1 (stereo not drawn) | -20.3 |
| Cn1c(C2=C(O)CN(c3ccccc3)C2=N)nc2ccccc21 | -13.2 |
| Cc1cc(C(=O)COC(=O)CC2Sc3ccccc3NC2=O)c(C)n1-c1cccc(C(F)(F)F)c1 (stereo not drawn) | 12.4 |
| CCOC(=O)C1CCN(C(=O)COc2ccc(S(=O)(=O)N3CCCC3)cc2C)CC1 | -11.1 |
| COc1cc(/C=C/C(=O)OCC(=O)NCCc2ccccc2)cc(OC)c1OC | 34.9 |

| Compound | hERG current change (%, negative = inhibition) at 10uM [%] |
| --- | --- |
| O=C(NCCCN1CCOCC1)C(=O)N/N=C/c1c(Cl)cccc1Cl | -8.72 |
| Cc1ccc(-c2nc(-c3cccnc3)sc2CC(=O)O)cc1 | 11 |
| COc1cc(NC(=O)c2csc3c2CCCC3)ncn1 | 9.87 |
| C/C(=N\N1CCN(C)CC1)c1ccc(Cl)c(Cl)c1.Cl | -47.7 |
| CC1CCCN(c2ccc(C(=O)Nc3cccnc3)cc2[N+](=O)[O-])C1 (stereo not drawn) | -24.4 |
| CN(CCOc1ccccc1)CC(=O)Nc1ccc([N+](=O)[O-])cc1Cl | -24.3 |
| COc1ccc(C(=O)c2coc3ccc(O)c(CN4CCCCC4)c23)cc1 | -76.9 |
| O=C(c1cccc(F)c1)N1CCN(S(=O)(=O)c2ccc(C(F)(F)F)cc2)CC1 | -16.3 |
| CC(C)[C@H](NC(=O)c1ccccc1)C(=O)N1CCc2ccccc21 | -14.2 |
| COc1ccccc1/C=C/C=N/n1c(-c2ccc(Cl)cc2)n[nH]c1=S | 16.8 |
| CCS(=O)(=O)N1CCCC(c2nc(-c3cccc(OC)c3)no2)C1 (stereo not drawn) | -24.6 |
| Cc1ccc(S(=O)(=O)CCC(=O)O)cc1C | -8.61 |
| COCCOC(=O)c1[nH]c2c(c1C)C(=O)CC(c1cc(OC)ccc1OC)C2 (stereo not drawn) | 0.379 |
| CCN1c2cccc3cccc(c23)S1(=O)=O | -24.3 |
| CN(C)S(=O)(=O)c1cccc(NC(=O)CCc2nc3cc(S(=O)(=O)N4CCOCC4)ccc3n2C)c1 | -5.4 |
| C#CCOCCOCCOCCNc1nc(N2CCN(C(=O)[C@H]([C@@H](C)CC)n3cc(CCCC[NH3+])nn3)CC2)nc(N2CCN(C(=O)[C@H](C)n3cc(CCC[NH+]=C(N)N)nn3)CC2)n1.[Cl-] | 15 |
| CN(/C(=N/S(=O)(=O)c1cccs1)c1ccccc1)c1ccccc1 | -14.7 |
| COC(=O)N/N=C/C1=CCC2CC1C2(C)C (stereo not drawn) | -16.1 |
| COc1ccc(-c2c(C#N)c(N)nc(Sc3ccc(Cl)cc3)c2C#N)cc1 | 14.2 |
| Cc1ccc(CNC(=O)c2cccc(OCc3c(C)noc3C)c2)cc1 | 4 |
| CCOC(=O)CCC(=O)NCc1ccc2[nH]c(C)cc2c1 | 4.85 |
